Measurements taken from paper PMC9911399, “Two distinct binding modes provide the RNA-binding protein RbFox with extraordinary sequence specificity”.
Where a chain is given by its changes, count along the chain named. This is one part of the list.

T1: RBFOX1 RRM (Homo sapiens, UniProt Q9NWB1 109-208)
T1 sequence: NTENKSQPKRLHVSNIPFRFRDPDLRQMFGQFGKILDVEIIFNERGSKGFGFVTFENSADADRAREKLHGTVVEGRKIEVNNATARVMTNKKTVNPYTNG

B1: CAUAACG (DNA:RNA)
RNA: GGGAGACCGGAAUUCAGAUUGUCCCAUAACGUUAAAUCCCGUCGUAGCCACCA
DNA 1: CAATCTGAATTCCGGTCTCCC
DNA 2: TGGTGGCTACGACGGGATT
B2: GAGCACA (DNA:RNA)
RNA: B1 RNA with C25G, U27G, A28C, G31A
DNA 1: CAATCTGAATTCCGGTCTCCC
DNA 2: TGGTGGCTACGACGGGATT
B3: CUUUCAA (DNA:RNA)
RNA: B1 RNA with A26U, A28U, A29C, C30A, G31A
DNA 1: CAATCTGAATTCCGGTCTCCC
DNA 2: TGGTGGCTACGACGGGATT
B4: UGAAACU (DNA:RNA)
RNA: B1 RNA with C25U, A26G, U27A, G31U
DNA 1: CAATCTGAATTCCGGTCTCCC
DNA 2: TGGTGGCTACGACGGGATT
B5: GUGCUCG (DNA:RNA)
RNA: B1 RNA with C25G, A26U, U27G, A28C, A29U
DNA 1: CAATCTGAATTCCGGTCTCCC
DNA 2: TGGTGGCTACGACGGGATT
B6: GUUUGCA (DNA:RNA)
RNA: B1 RNA with C25G, A26U, A28U, A29G, G31A
DNA 1: CAATCTGAATTCCGGTCTCCC
DNA 2: TGGTGGCTACGACGGGATT
B7: AGACGCU (DNA:RNA)
RNA: B1 RNA with C25A, A26G, U27A, A28C, A29G, G31U
DNA 1: CAATCTGAATTCCGGTCTCCC
DNA 2: TGGTGGCTACGACGGGATT
B8: CCGUUAU (DNA:RNA)
RNA: B1 RNA with A26C, U27G, A28U, A29U, C30A, G31U
DNA 1: CAATCTGAATTCCGGTCTCCC
DNA 2: TGGTGGCTACGACGGGATT
B9: GUUCUCU (DNA:RNA)
RNA: B1 RNA with C25G, A26U, A28C, A29U, G31U
DNA 1: CAATCTGAATTCCGGTCTCCC
DNA 2: TGGTGGCTACGACGGGATT
B10: UCUUCCC (DNA:RNA)
RNA: B1 RNA with C25U, A26C, A28U, A29C, G31C
DNA 1: CAATCTGAATTCCGGTCTCCC
DNA 2: TGGTGGCTACGACGGGATT
B11: UUAUUGG (DNA:RNA)
RNA: B1 RNA with C25U, A26U, U27A, A28U, A29U, C30G
DNA 1: CAATCTGAATTCCGGTCTCCC
DNA 2: TGGTGGCTACGACGGGATT
B12: AUUUUGA (DNA:RNA)
RNA: B1 RNA with C25A, A26U, A28U, A29U, C30G, G31A
DNA 1: CAATCTGAATTCCGGTCTCCC
DNA 2: TGGTGGCTACGACGGGATT
B13: AUUUCUU (DNA:RNA)
RNA: B1 RNA with C25A, A26U, A28U, A29C, C30U, G31U
DNA 1: CAATCTGAATTCCGGTCTCCC
DNA 2: TGGTGGCTACGACGGGATT
B14: UUUGUAU (DNA:RNA)
RNA: B1 RNA with C25U, A26U, A28G, A29U, C30A, G31U
DNA 1: CAATCTGAATTCCGGTCTCCC
DNA 2: TGGTGGCTACGACGGGATT
B15: CUACCGC (DNA:RNA)
RNA: B1 RNA with A26U, U27A, A28C, A29C, C30G, G31C
DNA 1: CAATCTGAATTCCGGTCTCCC
DNA 2: TGGTGGCTACGACGGGATT
B16: AGCAGAG (DNA:RNA)
RNA: B1 RNA with C25A, A26G, U27C, A29G, C30A
DNA 1: CAATCTGAATTCCGGTCTCCC
DNA 2: TGGTGGCTACGACGGGATT
B17: UCAUUGA (DNA:RNA)
RNA: GGGAGACCGGAAUUCAGAUUGUCCUCAUUGAUUAAAUCCCGUCGUAGCCACCA
DNA 1: CAATCTGAATTCCGGTCTCCC
DNA 2: TGGTGGCTACGACGGGATT
B18: UCUAUAC (DNA:RNA)
RNA: B17 RNA with A27U, U28A, G30A, A31C
DNA 1: CAATCTGAATTCCGGTCTCCC
DNA 2: TGGTGGCTACGACGGGATT
B19: UAUCGCC (DNA:RNA)
RNA: B1 RNA with C25U, A28C, A29G, G31C
DNA 1: CAATCTGAATTCCGGTCTCCC
DNA 2: TGGTGGCTACGACGGGATT
B20: CGCCUUU (DNA:RNA)
RNA: B1 RNA with A26G, U27C, A28C, A29U, C30U, G31U
DNA 1: CAATCTGAATTCCGGTCTCCC
DNA 2: TGGTGGCTACGACGGGATT

target: T1, RBFOX1 RRM; experiment: EMSA; HiTS-Eq, 1 nM pool, 10 min; buffer printed only for the single-RNA assays: 10 mM Tris pH 7.5, 150 mM NaCl, 3.4 mM EDTA, 0.001% NP-40, 30 C; details: tags: His6 N-terminal (pET28a); label: 5' 32P
Summary of the method: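 Relative association constants, normalised to the cognate motif, were derived by comparing read counts of each RNA species with those of the control reaction. The RNA sequenced was the free fraction, separated by 8% native PAGE after a 10 min equilibration in 50 µL of 1 nM 5′-radiolabelled RNA (7 randomized nucleotides) with increasing concentrations of purified wild-type or mutant RbFox RRM.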

In order of rising binding signal:
1. B1  0.00316 KA relative to UGCAUGU
2. B15  0.00361 KA relative to UGCAUGU
3. B18  0.00378 KA relative to UGCAUGU
4. B10  0.0053 KA relative to UGCAUGU
5. B3  0.00675 KA relative to UGCAUGU
6. B8  0.00696 KA relative to UGCAUGU
7. B16  0.00729 KA relative to UGCAUGU
8. B7  0.00766 KA relative to UGCAUGU
9. B14  0.00777 KA relative to UGCAUGU
10. B20  0.00869 KA relative to UGCAUGU
11. B13  0.00893 KA relative to UGCAUGU
12. B4  0.0109 KA relative to UGCAUGU
13. B11  0.0112 KA relative to UGCAUGU
14. B17  0.0112 KA relative to UGCAUGU
15. B2  0.0116 KA relative to UGCAUGU
16. B19  0.0118 KA relative to UGCAUGU
17. B12  0.0123 KA relative to UGCAUGU
18. B9  0.0178 KA relative to UGCAUGU
19. B6  0.0261 KA relative to UGCAUGU
20. B5  0.0432 KA relative to UGCAUGU
